Drawing on PubChem BioAssay AID1346428 (National Center for Advancing Translational Sciences (NCATS), 2018), this text covers activation for 85 compounds.

Hit rate of the full screen: of about 48,000 compounds, about 1,200 (2.5%) were called active. Roughly 2% stayed inconclusive and do not appear here.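 The calls were made as follows: active = activation of at least 60% and not above a set upper limit (about 1 call in 100 departs from these limits); inconclusive = activation of 40% to 60%, or above that upper limit; inactive = activation under 40%.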 The list shows a part of the results.

Chain of UniProt O75388 (O75388 whole entry, looked up): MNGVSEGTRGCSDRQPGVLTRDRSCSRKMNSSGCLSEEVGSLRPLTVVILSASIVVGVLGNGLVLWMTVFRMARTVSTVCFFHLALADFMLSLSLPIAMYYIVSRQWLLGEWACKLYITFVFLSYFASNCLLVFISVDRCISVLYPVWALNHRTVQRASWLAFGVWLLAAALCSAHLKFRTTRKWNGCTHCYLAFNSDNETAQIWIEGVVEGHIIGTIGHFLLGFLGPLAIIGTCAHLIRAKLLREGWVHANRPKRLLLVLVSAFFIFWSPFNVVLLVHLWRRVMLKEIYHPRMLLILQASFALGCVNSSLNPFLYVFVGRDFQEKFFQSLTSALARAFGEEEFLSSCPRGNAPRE

The experiment concerns the target Probable G-protein coupled receptor 32 (Homo sapiens) (UniProt O75388). The experiment is described as follows: qHTS for Agonists of Human Resolvin D1 Receptor DRV1. Conditions: CHO-K1 GPR32 beta-arrestin PathHunter luminescence, 90 min; at 76.9 µM; stronger effect = higher value; zero percent set by DMSO-only wells. The gist of the method:
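Using DMSO wells as EC0, agonist-induced signal was taken as chemiluminescence from beta-Gal reconstituted upon beta-arrestin recruitment to GPR32 in CHO-K1 cells after 90 min compound treatment.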
For orientation: In qHTS, concentration-response curves come from the screen itself.
As to `COCCNC(=O)Cn1ncc2c(C)n(Cc3ccc(C)cc3)c(C)c2c1=O`, the activation was inactive: -7.81%.
As for `CCCOc1ccccc1C1Oc2nc(SC)nnc2-c2ccccc2N1C(C)=O` (stereo not given), the figure is inactive: -2.14%.
The figure for `CCCCN1C(=O)C(O)(c2c(C)[nH]c3ccccc23)c2ccccc21` (stereo not given) is inactive: 34.9%.
The figure for `Cc1cccc(-n2ncc3c(N4CCCCCC4)ncnc32)c1` is inactive: -6.45%; for `Cc1ccc(CN(Cc2ccco2)C(=O)c2oc3ccc(C)cc3c2C)cc1` it is inactive: 4.24%.
As for `CCOc1ccc(C(=O)c2cn(Cc3ccc(F)cc3)c3ccc(F)cc3c2=O)cc1`, the activation is inactive: -14.2%.
The figure for `Cc1ccc(C)c(CNC(=O)c2cnc3sc(N4CCCC4)nn3c2=O)c1` is inactive: -0.859%; for `CSc1ccc(C2c3c(oc4ccccc4c3=O)C(=O)N2CCCN2CCOCC2)cc1` (stereo not given) it is inactive: -7.57%; for `CC(C)(C)C(=O)OC1=CN(Cc2ccccc2)S(=O)(=O)c2ccccc21` it is inactive: -14.6%.
As for `CCc1ccc(NC(=O)CSc2nc3ncccc3[nH]2)cc1`, the activation was inactive: 11.7%.
The figure for `O=S(=O)(c1ccccc1)c1nc(-c2ccc(F)cc2)oc1N1CCCCCC1` is inactive: 0.494%; for `Cc1cccc(N(C)C(=S)Oc2ccc3ccccc3c2)c1` it is inactive: -13.1%.
As for `CCOc1ccc(/C=C/C(=O)Nc2sc3c(c2C(=O)OC)CCC3)cc1`, the figure is inactive: 11.8%.
As to `COc1cccc(NC(=O)c2c(C(=O)Nc3ccccc3)sc3nc(C)cc(=O)n23)c1`, the activation is inactive: -26%.
In the case of `COc1cc2c(=O)n(CCC(=O)NCC3CCCO3)c(=O)n(CC(=O)Nc3ccc(F)cc3)c2cc1OC` (stereo not given), the activation was inactive: -5.09%.
As for `CCc1ccc(-n2c(CCC(=O)O)ccc2-c2ccc(F)cc2)cc1`, the figure is inactive: -0.879%; as for `COc1ccc(S(=O)(=O)N(CC(=O)Nc2cccnc2)c2ccc(C)cc2)cc1OC`, inactive: -6.3%; as for `Cc1ccc(O)c(NC(=O)CCS(=O)(=O)c2nc(-c3ccc4c(c3)OCO4)cc(C(F)(F)F)n2)c1`, inactive: -25.7%.
The figure for `CCc1ccc(CNC(=O)CCn2c(=O)c3cccn3c3ccc(F)cc32)cc1` is inactive: -20.6%; for `Cc1ccc(-n2nnc(-c3nsc(NC(=O)c4ccc(C)c(C)c4)n3)c2C)cc1` it is inactive: 23.6%; for `O=c1[nH]c(=O)n([C@H]2C[C@H](O)[C@@H](CO)O2)cc1I` it is inactive: -0.0054%.
The figure for `O=C(Nc1ccc(F)c(F)c1)C1CCCN1S(=O)(=O)c1cccc2nsnc12` (stereo not given) is inactive: -6.68%; for `CCOc1ccccc1NC(=O)COc1ccc(S(=O)(=O)NC2CCCCC2)cc1` it is inactive: 4.64%.
On to `CCOc1ccccc1CNC(=O)c1cc(-c2ccc(C)c(C)c2)nc2ccccc12`, for which the activation is inactive: -14.3%.
Consider `CCCS(=O)(=O)N1CCC(n2c(C(F)(F)F)nc3cccnc32)CC1`, for which the activation is inactive: -3.95%.
As for `Cc1ccc(CNC(=O)C(=O)NCC(c2cccnc2)N2CCN(c3ccccc3F)CC2)cc1` (stereo not given), the figure is inactive: 1.07%; as for `Cc1ccsc1CN(C(=O)c1oc2ccccc2c1C)C1CCS(=O)(=O)C1` (stereo not given), inactive: -19.8%.
The figure for `CCCCN(CCN(CCCC)C(=O)N1CCOCC1)C(=O)N1CCOCC1` is inactive: 4.34%; for `CC(C)Oc1ccc(CNC(=O)C2CCN(c3nc4ccccc4n(C)c3=O)CC2)cc1` it is inactive: 12.5%.
Consider `CCn1c(=O)c2sccc2n2c(CCC(=O)Nc3ccc(OC)c(Cl)c3)nnc12`, for which the activation was inactive: 20.4%.
For `Cc1ccc(C(=O)Nc2nc(-c3ccccc3)ns2)cc1`, the activation is inactive: 41.1%.
The figure for `Cc1oc2ncn(C)c(=O)c2c1C(=O)NCCCN(Cc1ccccc1)C(C)C` is inactive: -11.3%; for `Cc1ccc(NC(=O)Cn2nnc(C(=O)NCCc3ccccc3)c2N)cc1C` it is inactive: 1.27%.
Take `CS(=O)(=O)N1CCc2cc(C(=O)Nc3cccc(F)c3)ccc21`: the activation was inactive: 2.49%.
Regarding `COc1ccccc1CC(=O)Nc1ccc2nc(N3CCC(C)CC3)cc(C)c2c1`, the activation was inactive: 6.88%.
The figure for `Cc1ccc(C)c(Cn2c3ccccc3c3cnn(CC(=O)NC(C)c4ccccc4)c(=O)c32)c1` (stereo not given) is inactive: -0.348%; for `CCOc1ccc(C2C(C(=O)Nc3ccc(Cl)cc3)=C(C)Nc3nc(C(F)(F)F)nn32)cc1` (stereo not given) it is inactive: -10.3%; for `COc1ccc(OC)c(S(=O)(=O)N2CC=C(c3c(C)n(CC(=O)N4CCCC4)c4ccccc34)CC2)c1` it is inactive: -6.77%.
With `O=S(=O)(c1ccc(Cl)cc1)c1nnn2c1nc(N1CCCCC1)c1sccc12`, the activation was inactive: -13.6%.
In the case of `Cc1ccccc1NC(=O)CN(c1ccc(Cl)cc1Cl)S(=O)(=O)c1ccccc1`, the activation is inactive: -32.3%.
As for `Fc1ccccc1-n1ncc2c1ncn1nc(Cc3ccccc3)nc21`, the figure is inactive: -8.13%; as for `Cc1ccc2c(c1)-c1c(c(C(=O)N3CCN(c4cc(Cl)ccc4C)CC3)nn1C)CS2`, inactive: -19.9%.
For `CC(CNC(=O)CCS(=O)(=O)c1ccc2c(c1)oc(=O)n2C)c1ccccc1` (stereo not given), the activation was inactive: 7.6%.
For the compound `Cc1cccc(NC(=O)N2CCC(CN3CCOCC3)CC2)c1C`, the activation is inactive: -6.27%.
The figure for `COc1ccc(-c2nc3sc(CCNC(=O)c4ccccc4C)c(C)n3n2)cc1` is inactive: 45.1%.
Take `Cc1cn(C)c(CC(=O)N2CCN(c3ccccc3F)CC2)c1C(=O)O`: the activation is inactive: -2.65%.
For the compound `O=S(=O)(NCc1ccccc1Cl)c1ccc(N2CCCCS2(=O)=O)cc1`, the activation was inactive: -18.8%.
Take `Cc1c(C(=O)NCCc2ccc(S(N)(=O)=O)cc2)sc2nc3n(c(=O)c12)CCCC3`: the activation was inactive: 20.1%.
For the compound `Cc1cccn2c(=O)c3cc(C(=O)N(Cc4ccccc4)C(C)C)sc3nc12`, the activation is inactive: 32.7%.
Turning to `Cc1cccc(C(=O)Nc2nc(-c3nnn(-c4cc(F)ccc4F)c3C)ns2)c1`, the activation was inactive: -0.463%.
The figure for `CCCCN(C)CCNC(=O)c1ccc2c(c1)NC(=O)CN2` is inactive: -5.01%; for `COc1ccc(-c2cc(C(F)(F)F)n3nc(C(=O)NCC45CC6CC(CC(C6)C4)C5)cc3n2)cc1OC` it is inactive: -9.57%.
The figure for `Cc1cccc(Cn2c(C)c(CNC3CCCCC3)c(C(=O)O)c2C)c1` is inactive: 33%; for `Cc1cc(Cl)ccc1NC(=O)C1CCN(c2nnc(-n3c(C)ccc3C)s2)CC1` it is inactive: -20.5%.
For the compound `CCOC(=O)c1ccccc1NC(=O)N1CCOc2ccc(Cl)cc21`, the activation is inactive: -37.8%.
Regarding `CC1CCN(S(=O)(=O)c2ccc3c(c2)N(CC(=O)O)C(=O)CO3)CC1`, the activation is inactive: 8.15%.
As for `Cc1ccc(NC(=O)C(=O)NCC(c2cccnc2)N2CCN(Cc3ccccc3)CC2)cc1` (stereo not given), the figure is inactive: 0.296%.
The figure for `Cc1ccc2ccc3cc(C(=O)N4CCN(c5ccccc5)CC4)nc3c2[nH]1` is inactive: 46.3%; for `CC(=O)Nc1ccc(-c2nnc(SCC(=O)c3ccc([N+](=O)[O-])cc3)o2)cc1` it is active: 64%; for `COc1ccc(-c2ccc3cc(C(=O)O)ccc3c2)cc1C12CC3CC(CC(C3)C1)C2` it is inactive: -12.8%.
Regarding `CCc1ccccc1NC(=O)CSc1nc2c(oc3ccccc32)c(=O)n1-c1ccccc1F`, the activation is inactive: -15.9%.
Turning to `Cc1cccc(NC(=O)Cn2c(C(F)(F)F)nc3ccccc32)c1C`, the activation was inactive: -6.91%.
The figure for `CCc1ccccc1NC(=O)c1nc(-c2ccncc2)no1` is inactive: -2.46%.
As to `O=C(NCCc1csc2nc(-c3ccc(F)cc3)nn12)c1ccco1`, the activation is inactive: 3.65%.
For `COc1ccc(C)cc1NC(=O)Cn1cc(S(=O)(=O)Cc2ccccc2Cl)c2ccccc21`, the activation is inactive: -9%.
As for `CCOc1cc2c(cc1OCC)C(c1c(F)cccc1Cl)CC(=O)N2` (stereo not given), the figure is inactive: 49.2%; as for `CCOc1ccccc1CNS(=O)(=O)c1csc(C(N)=O)c1`, inactive: -7.22%.
As to `COC(=O)c1cc(NC(=O)CCc2c(C)nc3cc(-c4ccccc4)nn3c2C)cc(C(=O)OC)c1`, the activation is inactive: -1.21%.
The figure for `CC1CCN(S(=O)(=O)c2cc(C(=O)Nc3ccc(Br)cc3F)n(C)c2)CC1` is inactive: -5.25%; for `Cc1ccc(-c2cc(C(=O)N3CCN(c4ccccc4)CC3)c3ccccc3n2)cc1C` it is inactive: -26.7%; for `COc1cc(C2C(C(=O)Nc3ccccc3)=C(C)Nc3nc(SCc4ccccc4F)nn32)cc(OC)c1OC` (stereo not given) it is inactive: 17.6%.
The figure for `Cc1sc2c(c1C)c(=O)n(-c1ccc(Cl)cc1)c(=O)n2Cc1c(F)cccc1Cl` is inactive: -3.13%.
As to `CCOC(=O)c1c(S(=O)(=O)N2CCC(C(=O)N3CCN(c4cc(C)ccc4C)CC3)CC2)c(C)n(C)c1C`, the activation was inactive: -32.8%.
Consider `O=C(NC1CCCCC1)c1ccc(CSc2nc3cccnc3n2Cc2ccccc2F)cc1`, for which the activation is inactive: -0.451%.
As for `Cc1ccc(Cn2c(CCCNC(=O)C3CCCCC3)nc3ccccc32)cc1`, the figure is inactive: 11%; as for `CC(C)CCNC(=O)c1ccc2c(c1)N(Cc1ccccc1F)C(=O)c1ccccc1S2=O` (stereo not given), inactive: -29.7%; as for `COc1ccccc1OCC(=O)NCC1(N(C)C)CCCCC1`, inactive: -6.19%.
As for `Cc1ccc(N2CC(NC(=O)C(=O)c3c[nH]c4ccccc34)CC2=O)cc1` (stereo not given), the figure is inactive: -3.45%; as for `CCN1CCCC1CNC(=O)c1cc(S(N)(=O)=O)ccc1OC` (stereo not given), inactive: -8.58%.
Take `Oc1ccc(NCc2ccc(OCc3ccccc3Cl)cc2)cc1`: the activation was inactive: -57%.
As for `O=C(CSc1nc(=O)n(Cc2cccnc2)c2c1CCC2)Nc1ccc(F)cc1F`, the figure is inactive: 19%.
Regarding `Cc1ccc(Cc2nc3ccccc3nc2SCC(=O)N2CCCCC2C)cc1` (stereo not given), the activation is inactive: -15.9%.
In the case of `COC(=O)c1cccc(NC(=O)Nc2cc(C(=O)NCc3cccc(F)c3)ccc2N2CCCC2)c1`, the activation was inactive: -23.2%.
As for `N#C/C(=C\c1c(Oc2ccc(Br)cc2)nc2ccccn2c1=O)c1nc2ccccc2s1`, the figure is inactive: 29.3%; as for `CCCCN1CCc2nc(N3CCN(C)CC3)ncc2C1`, inactive: -16.7%.
